Results on 2 molecules are retold here after US20090155271A1 (ZymoGenetics, published 2009).

For assay [1], the target named is T1, human IL-17F (human, UniProt Q96PD4 31-163).
T1 sequence: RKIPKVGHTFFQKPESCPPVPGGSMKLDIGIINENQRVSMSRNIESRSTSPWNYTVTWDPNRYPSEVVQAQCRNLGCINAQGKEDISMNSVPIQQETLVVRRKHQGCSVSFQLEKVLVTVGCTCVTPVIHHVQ
Description: cell-based or functional assay.

Assay [2] addresses T1, human IL-17F. The assay can be described thus: FACS competition, biotinylated IL17F on BHK IL17RCx4 cells. The procedure: (§1) The biotinylation of the ligand allows for FACS detection using a secondary Streptavidin conjugated fluorophore. A reduction in cell bound ligand over a titration of the soluble receptor is recorded as a reduction in the mean fluorescence of the cells. Biotinylated ligands are individually pre-mixed at 1 ug/ml with titrating amounts of soluble receptor in staining media (HBSS+1% BSA+0.1% NaAzide+10 mM HEPES) in 100 ul volumes and incubated at RT for 15 minutes. A BHK cell line stably transfected with full length IL17RCx4 is prepared for ligand staining by resuspension with Versene (Invitrogen cat. 15040-066), equilibrating to 2×10e5 cells/100 ul, pelleting, and resuspension in the ligand/soluble receptor pre-mix. […] The BD LSRII Flow Cytometer or similar instrument is used for data collection and analysis. FIG. 5 depicts a standard graph. The graph was generated using the Prizm software program. The Y values represent the MFI normalized to maximum and minimum (100% and 0%) based on ligand only and no ligand/no soluble receptor control wells, and thus the percent binding of the ligand to the cells. The software calculates the IC50 for each curve.

Assay [3] has as its target T2, human IL-17A (human, UniProt Q16552 24-155).
T2 construct: also called hIL-17A; huIL-17A
T2 sequence: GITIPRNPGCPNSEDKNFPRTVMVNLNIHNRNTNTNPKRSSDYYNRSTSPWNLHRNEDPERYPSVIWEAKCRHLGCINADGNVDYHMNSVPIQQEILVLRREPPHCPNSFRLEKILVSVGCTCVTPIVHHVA
Description: FACS competition, biotinylated IL17A on BHK IL17RCx4 cells. On the procedure:
as §1

“And” between values parts separate entries of the source, which are not always exact repeats. Identical values can stand only once.

B1: soluble human IL-17RCx1 Fc fusion protein IL-17RC-Tbx-C(Fc9) (Fc fusion)
chain: LERLVGPQDATHCSPGLSCRLWDSDILCLPGDIVPAPGPVLAPTHLQTELVLRCQKETDCDLCLRVAVHLAVHGHWEEPEDEEKFGGAADSGVEEPRNASLQAQVVLSFQAYPTARCVLLEVQVPAALVQFGQSVGSVVYDCFEAALGSEVRIWSYTQPRYEKELNHTQQLPALPWLNVSADGDNVHLVLNVSEEQHFGLSLYWNQVQGPPKPRWHKNLTGPQIITLNHTDLVPCLCIQVWPLEPDSVRTNICPFREDPRAHQNLWQAARLRLLTLQSWLLDAPCSLPAEAALCWRAPGGDPCQPLVPPLSWENVTVDKVLEFPLLKGHPNLCVQVNSSEKLQLQECLWADSLGPLKDDVLLLETRGPQDNRSLCALEPSGCTSLPSKASTRAARLGEYLLQDLQSGQCLQLWDDDLGALWACPMDKYIHKGGSGGGTGSLVPRGS[human IgG1 Fc left out here]
As for B1, in assay [1], the “IC50, luciferase activation of hIL-17RCX4/NIH3T3/KZ142.8 cells by 1 ng/ml IL-17F” value was found to be 6 µg/mL.

B2: Variant 1407 (exons 1-10 of human IL-17RA and 8-16 of human IL-17RCx1, fused to Fc5) (Fc fusion)
chain: [about 300 residues left out here]ALPWLNVSADGDNVHLVLNVSEEQHFGLSLYWNQVQGPPKPRWHKNLTGPQIITLNHTDLVPCLCIQVWPLEPDSVRTNICPFREDPRAHQNLWQAARLRLLTLQSWLLDAPCSLPAEAALCWRAPGGDPCQPLVPPLSWENVTVDKVLEFPLLKGHPNLCVQVNSSEKLQLQECLWADSLGPLKDDVLLLETRGPQDNRSLCALEPSGCTSLPSKASTRAARLGEYLLQDLQSGQCLQLWDDDLGALWACPMDKYIHKEPKSSDKTHTCPPCPAPEAEGAPSVFLFPPKPKDTLMISRTPEVTCVVVDVSHEDPEVKFNWYVDGVEVHNAKTKPREEQYNSTYRVVSVLTVLHQDWLNGKEYKCKVSNKALPSSIEKTISKAKGQPREPQVYTLPPSRDELTKNQVSLTCLVKGFYPSDIAVEWESNGQPENNYKTTPPVLDSDGSFFLYSKLTVDKSRWQQGNVFSCSVMHEALHNHYTQKSLSLSPGK
notes: also called IL17RA/RC 1407
Turning to B2, the half-inhibitory concentration (IC50) is 33 µg/mL and 42 µg/mL in assay [2]; 7 µg/mL and 9 µg/mL in assay [3].

What is called IC50 is the concentration that inhibits the measured activity by half.
